Data as given in the RNAGym collection of RNA variant scans (doi:10.7554/elife.90254).
Read counts are not given, so values of variants with three or more changes are uncertain.

B1: OR4K15 (parent)
chain: GUUAACGGUCAUAGGCCAUGGAAACUAGGAGCACCAUUUCGCUGCCAGUGAAGAAAUGAACAAAGAAAAUCUGGGCCAGGCAGGCAUCAAAAGAAAUAGUCUUGCGCUCAACCAGAAAGUCUGUAAUCAUUUUAAGGGUA

Variants of: B1
Experiment: self-cleavage, relative activity (ratio to wild type); higher = more cleavage; in vitro, sequencing; the parent is a self-cleaving ribozyme

Question: Which self-cleavage does the source give for U2C A96G U103G U130C here?
Answer: 0.02

Question: With U2C A36U A52G as the variant, how does the self-cleavage read?
Answer: 1.2

Question: For U2C A30G U43C A64G U70C, which self-cleavage is on record?
Answer: 0.34

Question: With U2C A78G A89G A91U as the variant, how does the self-cleavage read?
Answer: 0.41

Question: With U2C A33G A62G U70C U87C as the variant, how does the self-cleavage read?
Answer: 0.33

Question: For U2C U37C A67U U102C U103C, which self-cleavage is on record?
Answer: 0.11

Question: For U2C U9C A68G A91G U139A, which self-cleavage is on record?
Answer: 1.13

Question: For U2C A24G A27U A90G, which self-cleavage is on record?
Answer: 0.91

Question: With U2C G99A A111U U130C as the variant, how does the self-cleavage read?
Answer: 0.01

Question: Which self-cleavage does the source give for U2C A64G U72A A126G U139G here?
Answer: 0.15

Question: For U2C A78G A125G, which self-cleavage is on record?
Answer: 0.16

Question: For U2C A64G A114U A116U, which self-cleavage is on record?
Answer: 0.03

Question: Which self-cleavage does the source give for U2C C35U A68G U87C here?
Answer: 0.75

Question: For U2C A60G A96U, which self-cleavage is on record?
Answer: 0.71

Question: For U2C A47U A94G U132C, which self-cleavage is on record?
Answer: 0.19

Question: Which self-cleavage does the source give for U2C A23G A51G here?
Answer: 0.48

Question: For U2C A27G A78U A91G G106C A118G, which self-cleavage is on record?
Answer: 0

Question: Which self-cleavage does the source give for U2C A60G U70C A89G here?
Answer: 0.77

Question: Which self-cleavage does the source give for U2C U26C A52G A96G here?
Answer: 1.01

Question: For U2C G41A A51G G65U, which self-cleavage is on record?
Answer: 1.82

Question: With U2C A33C A36G as the variant, how does the self-cleavage read?
Answer: 0.57

Question: With U2C A47G U49C A94G as the variant, how does the self-cleavage read?
Answer: 1.04

Question: With U2C U19C U70C A117U as the variant, how does the self-cleavage read?
Answer: 0.23

Question: With U2C A11G U38C A111G A126G as the variant, how does the self-cleavage read?
Answer: 0.05

Question: With U2C A78G A114U as the variant, how does the self-cleavage read?
Answer: 0

Question: For U2C A30G A63G U108C A116G, which self-cleavage is on record?
Answer: 0.02

Question: Which self-cleavage does the source give for U2C A89G U130C here?
Answer: 0.68

Question: For U2C A78U A114U G138A, which self-cleavage is on record?
Answer: 0.05

Question: Which self-cleavage does the source give for U2C C35U A36G A68G A90G here?
Answer: 0.76

Question: With U2C A22U U39A A54G as the variant, how does the self-cleavage read?
Answer: 1.45

Question: With U2C U12C G73A A92G A111U as the variant, how does the self-cleavage read?
Answer: 0.04

Question: With U2C A51C A95G as the variant, how does the self-cleavage read?
Answer: 0.91

Question: Which self-cleavage does the source give for U2C U9C A11G U26C here?
Answer: 1.61

Question: For U2C A11G U38C U43A A82G, which self-cleavage is on record?
Answer: 0.98

Question: For U2C A51G A64G U70A, which self-cleavage is on record?
Answer: 0.85

Question: Which self-cleavage does the source give for U2C G53U U72A U103A A117G here?
Answer: 0.06

Question: With U2C A64U A89U U102C as the variant, how does the self-cleavage read?
Answer: 0.74

Question: With U2C A60G A78G as the variant, how does the self-cleavage read?
Answer: 0.33

Question: With U2C U19C A27U U70C G73U U108C G123A as the variant, how does the self-cleavage read?
Answer: 0.06

Question: With U2C A68G A96G as the variant, how does the self-cleavage read?
Answer: 0.38

Question: With U2C A5G U70C G75A U103A U131C as the variant, how does the self-cleavage read?
Answer: 0.03

Question: With U2C A78G A118G as the variant, how does the self-cleavage read?
Answer: 0.08

Question: Which self-cleavage does the source give for U2C A24C U102C here?
Answer: 2.8

Question: With U2C A55G A68G as the variant, how does the self-cleavage read?
Answer: 1.64

Question: With U2C C105U U122A A129G as the variant, how does the self-cleavage read?
Answer: 0.06

Question: With U2C A27G A60G as the variant, how does the self-cleavage read?
Answer: 1.95

Question: Which self-cleavage does the source give for U2C A18U A60G here?
Answer: 0.66

Question: Which self-cleavage does the source give for U2C A22G A116G here?
Answer: 0.61

Question: For U2C C32U A91G A117U U122A, which self-cleavage is on record?
Answer: 0.67

Question: For U2C A51G A92G, which self-cleavage is on record?
Answer: 0.83

Question: Which self-cleavage does the source give for U2C A33G A98G here?
Answer: 0.38

Question: For U2C U26C A36U A54U A66U U72A U108C U132C, which self-cleavage is on record?
Answer: 0.02

Question: Which self-cleavage does the source give for U2C A18G A59G here?
Answer: 0.41

Question: With U2C A24C A59U A82G A118G U131C as the variant, how does the self-cleavage read?
Answer: 0.06

Question: With U2C U38C A95U U102C U132C as the variant, how does the self-cleavage read?
Answer: 1.04

Question: For U2C A64G U108C C112U, which self-cleavage is on record?
Answer: 0.01

Question: Which self-cleavage does the source give for U2C A92U A95G A117G here?
Answer: 0.9

Question: Which self-cleavage does the source give for U2C A36G A90G here?
Answer: 0.74

Question: For U2C U12A U19G G28A G74A A89G, which self-cleavage is on record?
Answer: 0.36

Question: Which self-cleavage does the source give for U2C A62U A64G here?
Answer: 1.16

Question: For U2C A11G C128A, which self-cleavage is on record?
Answer: 1.37

Question: With U2C G7U A47G A63C as the variant, how does the self-cleavage read?
Answer: 1.32

Question: Which self-cleavage does the source give for U2C A18G A52G A64G A96G here?
Answer: 0.77

Question: Which self-cleavage does the source give for U2C U37C U124A here?
Answer: 0.79

Question: Which self-cleavage does the source give for U2C A11U U39C A52G A59G A89G here?
Answer: 0.48

Question: With U2C A47U U57G A69G as the variant, how does the self-cleavage read?
Answer: 0.35

Question: With U2C A56G A92G as the variant, how does the self-cleavage read?
Answer: 0.47

Question: For U2C A18U A23G C88U G138A, which self-cleavage is on record?
Answer: 1.51

Question: With U2C A27U U37C A54C A92U as the variant, how does the self-cleavage read?
Answer: 1.27

Question: For U2C A11G A90U A110U, which self-cleavage is on record?
Answer: 0.82

Question: With U2C A23G U132A as the variant, how does the self-cleavage read?
Answer: 0.41

Question: For U2C U9C U72A A82G, which self-cleavage is on record?
Answer: 0.13

Question: With U2C A24G A67U A110G as the variant, how does the self-cleavage read?
Answer: 0.25

Question: For U2C U9A U122A U130C, which self-cleavage is on record?
Answer: 1.27

Question: For U2C A36U U39C A51G A110G, which self-cleavage is on record?
Answer: 0.19

Question: With U2C A67G U120C as the variant, how does the self-cleavage read?
Answer: 1.07

Question: With U2C A27C A126U as the variant, how does the self-cleavage read?
Answer: 0.61

Question: For U2C G74A A86G A125G A135U, which self-cleavage is on record?
Answer: 0.04

Question: Which self-cleavage does the source give for U2C A90G A95G here?
Answer: 1.31

Question: Which self-cleavage does the source give for U2C A22G U72A U108A here?
Answer: 0.01

Question: For U2C A27U G74A A111C, which self-cleavage is on record?
Answer: 0.02

Question: For U2C G7A A64G U70C U124C, which self-cleavage is on record?
Answer: 0.45

Question: With U2C A91U U130C as the variant, how does the self-cleavage read?
Answer: 0.41

Question: With U2C A11G A60G as the variant, how does the self-cleavage read?
Answer: 1.49
